# Assay results published in PubChem BioAssay AID651820 (National Center for Advancing Translational Sciences (NCATS), 2012).
# “And” between values parts separate entries of the source, which are not always exact repeats. Equal entries are not always repeated. In all, about 340,000 compounds went through this assay and about 12,000 (3.5%) were called active. Inconclusive means that the source gave no clear call. Such entries were picked first, then a sample of the others. The call rests on the fitted dose curve; in most records, active means well fitted inhibition curve with a large enough effect; inconclusive means small, poorly fitted or top-dose-only effect, or another doubt; inactive means no such curve, though single readings can be large or run the other way. A potency beside an inconclusive call is a rough fit, not a confirmed value.
# Test: qHTS Assay for Inhibitors of Hepatitis C Virus (HCV)
# Details: Huh7.5.1 HCVcc-Cre (HCVcc is cell-culture hepatitis C virus) infection, luciferase reporter, 44 h; series mostly up to 41.8 µM
# Method in brief: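 Whole-lifecycle infectious HCVcc-Cre system; cells 1,000/well, compound then virus (~0.5 moi) added 4 h after plating, 44 h culture. Luciferase read 15 sec following 15 min substrate incubation, room temp.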
# Potency means the concentration at half of the fitted maximal effect; tags describe the fitted curve by direction and shape.
row,Compound,Potency
1,Cc1ccc(-c2nnc(NCc3nc4ccccc4[nH]3)c3ccccc23)cc1S(=O)(=O)N1CCOCC1,"inconclusive: 22.4 µM [inhibitor, single point]"
2,COc1cc(/C=C2\SC(=S)N(N(C)c3ccccc3)C2=O)ccc1O,inactive
3,Cc1ccc(NC(=S)NCCc2ccccc2)c(C)c1,"inconclusive: 5.01 µM [inhibitor, full curve]"
4,O=C1CC2(CCN(C(=O)c3ccc(Cl)cc3)CC2)Oc2ccccc21,inactive
5,CCOC(=O)c1cccc(NC(=O)C2CCN(c3ncnc4c3nc3n4CCCCC3)CC2)c1,"inconclusive: 3.55 µM [inhibitor, partial curve]"
6,Cc1ccc(C)c(N2CCN(C(=O)c3ccc(N4CCCC4=O)cc3)CC2)c1,"inconclusive: 31.6 µM [inhibitor, single point]"
7,O=C(CCN1C(=O)/C(=C\c2ccccc2)SC1=S)N1CCOCC1,inactive
8,CC(=O)Nc1ccc(Nc2nc(C(F)(F)F)nc3c2nnn3Cc2ccccc2Cl)cc1,"inconclusive: 10 µM [inhibitor, partial curve]"
9,Cc1ccc(-c2nnc(N3CCN(c4ccccn4)CC3)c3ccccc23)cc1,"inconclusive: 14.1 µM [inhibitor, single point]"
10,O=[N+]([O-])c1cccc(-c2nnc3ccccn23)c1,inactive
11,Nc1c2c(nc3ccccc13)N(C1CCCCC1)CC2,active: 0.316 µM
12,Cc1ccc(-n2ccc(=O)c(C(=O)O)n2)cc1,"inconclusive: 17.8 µM [inhibitor, single point]"
13,CC(Sc1nc2ccccc2[nH]1)C(=O)Nc1ccc2c(c1)OCCO2 (stereo not given),"inconclusive: 31.6 µM [inhibitor, single point]"
14,Cc1ccc2c(c1)c1c3n2CCCN(Cc2ccccc2)C3CCC1 (stereo not given),"inconclusive: 5.62 µM [inhibitor, single point]"
15,O=C(c1cccs1)n1nc(NCc2ccccc2)nc1NCc1ccccc1,"inconclusive: 0.501 µM [inhibitor, full curve, poor fit]"
16,S=C(NCCCN1CCOCC1)Nc1ccc(-c2nc3ccccc3[nH]2)cc1,"inconclusive: 31.6 µM [inhibitor, single point]"
17,COc1ccc(OC)c(-c2nnc(SCC(=O)N3CCOCC3)o2)c1,"inconclusive: 20 µM [inhibitor, single point]"
18,CCCCCC(=O)NNC1=NCC(Cc2cccc(Cl)c2)S1 (stereo not given),inactive
19,Cc1cc2c(ccc3[nH]onc32)n1,"inconclusive: 25.1 µM [inhibitor, single point]"
20,CCCNC(=O)C(Cc1ccc(OC)cc1)NC(=O)c1ccc(C#N)cc1 (stereo not given),active: 3.16 µM
21,COC(=O)C1=C(C)N=C2SC(C)C(=O)N2C1/C=C/c1ccccc1OC (stereo not given),"inconclusive: 7.08 µM [inhibitor, partial curve]"
22,O=C(C1CCCO1)N1CCN(Cc2nc3ccccc3c(=O)[nH]2)CC1 (stereo not given),inactive
23,Cc1nc(SCc2ccc([N+](=O)[O-])cc2)nc2ccccc12,"inconclusive: 0.355 µM [inhibitor, full curve, poor fit]"

row,Compound,Potency
1,Cc1cccc(CSc2ccc(S(=O)(=O)N3CCCC3)cn2)c1,"inconclusive: 11.2 µM [inhibitor, partial curve]"
2,CC(CNC1CCCCC1)OC(=O)c1ccccc1 (stereo not given),inactive
3,O=C(CO/N=C/c1ccccc1)N1c2ccccc2Oc2ccccc21,inactive
4,CN1/C(=C\C(=S)NC(=O)c2ccccc2Cl)C(C)(C)c2ccccc21,"inconclusive: 7.08 µM [inhibitor, partial curve]"
5,O=C(CC1S/C(=N/N=C2CCCCCC2)NC1=O)Nc1ccc(Br)cc1F (stereo not given),inactive
6,C=CCNC(=O)c1sc(=S)n(-c2ccc(C(=O)OCC)cc2)c1N,inactive
7,Cc1ccc(NC(=O)COC(=O)c2ccccc2-c2nc3ccccc3s2)c(C)c1,inactive
8,CC(C)Oc1ccc(CN2CCC(n3nccc3NC(=O)c3cccnc3)CC2)cc1,"inconclusive: 11.2 µM [inhibitor, partial curve]"
9,O=C(COC(=O)/C(=C/c1cccs1)c1cccs1)NCc1ccccc1Cl,"inconclusive: 22.4 µM [inhibitor, single point]"
10,COC(=O)c1cc(OCC(=O)NC2CCCc3ccccc32)cc(C(=O)OC)c1 (stereo not given),"inconclusive: 4.47 µM [inhibitor, partial curve]"
11,COc1ccccc1-n1cnc2cc(NS(=O)(=O)c3ccc(Br)cc3)ccc21,"inconclusive: 31.6 µM [inhibitor, single point]"
12,CC[C@H]1OC(=O)[C@H](C)[C@@H](O[C@H]2C[C@@](C)(OC)[C@@H](O)[C@H](C)O2)[C@H](C)[C@@H](O[C@@H]2O[C@H](C)C[C@H](N(C)C)[C@H]2O)[C@](C)(O)C[C@@H](C)C(=NOCOCCOC)[C@H](C)[C@@H](O)[C@]1(C)O,inactive
13,Cc1c(C(=O)NCc2ccccn2)oc2c(Cl)cccc12,inactive
14,CCOc1ccc2nc(NC(=O)CN3CCC(n4nnc5cc(F)ccc54)CC3)sc2c1,"inconclusive: 15.8 µM [inhibitor, partial curve] and inconclusive: 10 µM [inhibitor, partial curve]"
15,O=C(Nc1ccc(S(=O)(=O)Nc2nccs2)cc1)c1cc(-c2ccccc2)nc2ccccc12,inactive
16,COc1ccc2[nH]c(C(=O)N(C)Cc3ccccc3)c(C)c2c1,inactive
17,COc1ccc(C)cc1S(=O)(=O)N(C)CC(N)=O,inactive
18,NC(=S)N/N=C/c1ccccc1OCCSc1ccc(Cl)cc1,"inconclusive: 2 µM [inhibitor, partial curve]"
19,Cc1oc2cc3oc(=O)cc(C)c3cc2c1C,inactive
20,COc1ccc(N(CC(=O)NCCC2=CCCCC2)S(=O)(=O)c2ccccc2)cc1,"inconclusive: 14.1 µM [inhibitor, single point]"
21,Cn1ncc(N=Cc2c(O)ccc3ccccc23)c1C(=O)Nc1cccc(Cl)c1,"inconclusive: 7.94 µM [inhibitor, partial curve]"
22,CC(C)(C)NC(=O)c1ccc2c3c(cccc13)CC2,"inconclusive: 14.1 µM [inhibitor, single point]"
